The text below walks through data of ChEMBL document CHEMBL4888484, “Replenishing the malaria drug discovery pipeline: Screening and hit evaluation of the MMV Hit Generation Library 1 (HGL1) against asexual blood stage Plasmodium falciparum ,using a nano luciferase reporter read-out” (2022).

Hit rate of the full screen: of about 150,000 compounds, about 540 (0.36%) showed an effect of 50% or more. The list shows a part of the results.

The assay has as its system Plasmodium falciparum. In words: Primary screen in NF54 nanoGlo assay, in single point, at 2uM, 72h; a lower Z score goes with more inhibition. The assay is classed as functional, Erythrocyte. The following applies: timepoint 72 hour.
Consider `Brc1ccc2c(c1)NCCCC2`, for which the “% Inhibition” value is reported as -6% and the Z score worked out at 0.91.
For `Nc1c(C(=O)Nc2ccc3c(c2)OCO3)sc2ncccc12`, in that order: -13% and 1.32.
For the compound `Cn1nc2c(c1C(=O)NC[C@](C)(O)c1cccc(F)c1)CS(=O)(=O)CC2`, the “% Inhibition” value was -12% and the Z score is reported as 1.8.
For `Cc1ncc(CO)c2c1OC(C)(C)OC2`, in that order: 1% and -0.16.
The like results for `NS(=O)(=O)c1ccc(CCNc2nc(C3CCCCC3)nc3ccccc23)cc1` were, in that order, -41% and 4.79.
The like results for `CCCNC(=O)CCc1c(-c2ccc(Cl)cc2)nc2ccc(-c3cccc(C)c3)cn12` were, in that order, -26% and 2.57.
Turning to `CC(C)c1nnc(NCCN2CCC[C@H](CO)C2)s1`, the “% Inhibition” value turned out to be 7% and the Z score is on record as -0.89.
For `COc1ccc(CC(=O)N2N=C(C)C[C@]2(O)c2cccnc2)cc1`, in that order: 46% and -4.92.
For the compound `COc1ccc(OC)c(S(=O)(=O)N2CCCCCCNC(=O)[C@@H]3CCC[C@@H]32)c1`, the “% Inhibition” value was -7% and the Z score is on record as 0.87.
The like results for `Cc1cccc(C)c1NC(=O)c1csc(-c2ccnc(N3CCOCC3)c2)n1` were, in that order, -1% and 0.17.
For `Cc1onc(NC(=O)NCC(F)F)c1C`, in that order: -10% and 0.98.
For `O=C(Cc1ccccc1)Nc1ccc(NC(=O)C(c2ccccc2)c2ccccc2)cc1`, in that order: -2% and 0.46.
Regarding `c1nc2ccc(-c3nc([C@H]4CCOC4)no3)cc2s1`, the “% Inhibition” value amounted to 9% and the Z score is on record as -1.55.
For `CC(C)Nc1ccccc1C(=O)N1CCN2CCN(C)C[C@H]2C1`, in that order: -6% and 0.88.
The like results for `CC(=O)N(c1cccc(C)c1)[C@H]1CCS(=O)(=O)C1` were, in that order, 1% and -0.15.
With `COCC(C)(C)N(C)C(=O)c1coc(C2CCOCC2)n1`, the “% Inhibition” value is -5% and the Z score was found to be 0.8.
`CCCN(CC1CCCO1)C(=O)CC1(c2cccc(F)c2)CC(=O)N(C)C1=O` (stereo not drawn): the “% Inhibition” value stood at 0% and the Z score is listed as 0.01.
For `Cc1nccc(C2CCN(C(=O)c3cn4c5c(cccc5c3=O)CC4)CC2)n1`, in that order: -4% and 0.53.
The like results for `CN(C)c1nccc(CNS(=O)(=O)c2ccc3c(c2)CC(C)(C)O3)n1` were, in that order, -9% and 1.11.
The like results for `CCOc1cccnc1C(=O)N1CCN(c2cccc(C)n2)C[C@@H]1C` were, in that order, -17% and 2.26.
In the case of `CCCOc1cccc(Cn2ccn3c(=O)cc(C)nc23)c1`, the “% Inhibition” value is listed as -9% and the Z score was found to be 1.
The like results for `O=C1CCCN1c1ccc(Cn2nc3ccc(-c4ccc(Cl)cc4)nn3c2=O)cc1` were, in that order, -1% and 0.15.
For `N#Cc1c[nH]c(C(=O)N[C@H]2CCOC[C@@H]2O)c1`, in that order: -17% and 3.15.
Take `CCOC(=O)c1cnn(-c2nc(-c3ccccc3)cs2)c1CN(C)C[C@H]1COCCO1`: the “% Inhibition” value is on record as -9% and the Z score was 1.28.
For `O=C(Cc1cccs1)N1CCC[C@H](OCc2nc(C3CC3)no2)C1`, in that order: -5% and 0.59.
For `C[C@H](O)c1ccc(-c2ccc(CNCCc3c[nH]c4ccccc34)o2)cc1`, in that order: -13% and 1.54.
The like results for `O=C(Nc1cccc(N2CCCC2=O)c1)c1nccnc1-c1nc2ccccc2s1` were, in that order, -6% and 0.8.
For `CC(C)NC(=O)CNC(=O)c1ccc(Br)cc1`, the “% Inhibition” value amounted to 6% and the Z score was -1.
For `CCC1=C(c2ccc(C)cc2)S(=O)(=O)N=C1N1CCC(C(=O)N[C@@H](C)CC)CC1`, in that order: 1% and -0.22.
For `CC1CC(C)C2N(C1)c1ccccc1CC21C(=O)CC(C)(C)CC1=O` (stereo not drawn), in that order: -10% and 1.94.
For `Cn1cnc(C=Cc2ccncc2C#N)c1`, in that order: -19% and 2.07.
On to `COCC(=O)N1CC(Oc2nc3ccccc3s2)C1`, for which the “% Inhibition” value is on record as 5% and the Z score is -0.51.
For `O=C(C1CC1c1ccc(Cl)cc1Cl)N1CC(O)CC1CO` (stereo not drawn), in that order: -13% and 1.8.
The like results for `C[C@H]1OCCN(C(=O)c2ccc(N(C)C)nc2)[C@@H]1C(N)=O` were, in that order, -4% and 0.77.
For `CN(C)C(=O)c1nc2ccc(Cl)cn2c1-c1ncc[nH]1`, in that order: 13% and -1.86.
On to `CC(CO)N(C)C(=O)NCC1CC1c1ccc(Cl)cc1Cl` (stereo not drawn), for which the “% Inhibition” value is given as -6% and the Z score worked out at 0.59.
In the case of `CCCC(=O)Nc1ccc(-n2ccnc2-c2[nH]cnc2C)cc1OC`, the “% Inhibition” value turned out to be 10% and the Z score was -1.25.
For `Cc1cc(C(=O)N2CCC(F)(C(=O)NCc3ccccc3)CC2)n(C)n1`, in that order: 9% and -1.11.
For `COc1nn(C)cc1C(=O)Nc1ccc(Cl)c(N2CCCS2(=O)=O)c1`, the “% Inhibition” value was -19% and the Z score worked out at 2.75.
For `CN(C(=O)CC(F)(F)F)[C@@H]1COC[C@H]1O`, the “% Inhibition” value came to 8% and the Z score is listed as -1.
The like results for `COc1ccc2c(CNC3CCC(C)CC3)c(C(=O)O)[nH]c2c1` (stereo not drawn) were, in that order, -13% and 1.28.
The like results for `COc1ccccc1NC(=O)c1cnn(-c2cc(-c3nc(C(C)C)no3)ccn2)c1C` were, in that order, -5% and 0.72.
For `CCN1C(=O)c2ccc(Cl)cc2NC12CCN(C(=O)CC(C)(C)C)CC2`, in that order: 2% and -0.22.
In the case of `Cc1cccc2c(CCC(=O)N(CCC(=O)O)C3CCOCC3)c[nH]c12`, the “% Inhibition” value is -8% and the Z score was found to be 1.09.
With `O=S(=O)(NCc1cccc(-n2ccnc2)c1)c1cccnc1`, the “% Inhibition” value is reported as 0% and the Z score is -0.01.
For `COCC1(NC(=O)[C@H](C)c2cncnc2)CCCC1`, the “% Inhibition” value is -3% and the Z score amounted to 0.32.
For `Cn1c(CN2CCCCCC2)nc2cc(NC(=O)c3cccc(Br)c3)ccc21`, in that order: -4% and 0.7.
For `C[C@H](NC(=O)c1ccc(B(O)O)cc1)C1CCC(F)(F)CC1`, the “% Inhibition” value is -11% and the Z score was determined as 1.08.
Consider `Cc1ccc(CNC(=O)CN2CCC3(CC2)NC(c2ccc(OC(F)(F)F)cc2)=NO3)cc1`, for which the “% Inhibition” value was determined as 30% and the Z score is given as -3.99.
For `Cc1ccc(C(=O)Nc2nc3c(s2)CN(S(=O)(=O)c2ccccc2)CC3)cc1Br`, in that order: -8% and 0.74.
For `CC(C)c1ccc(-c2ccnc3c(C(=O)N4CCN(c5ccccc5F)CC4)cnn23)cc1`, in that order: 34% and -3.84.
With `Cc1nc(CCC(=O)N2CCCCCC2)n(CCO)n1`, the “% Inhibition” value turned out to be 14% and the Z score was -1.82.
For `Cc1cnc(C)c(-c2cccc(-c3ccn(C[C@H](O)c4ccccc4)n3)c2)n1`, in that order: 3% and -0.46.
Take `CC(C)c1cc(NCCCn2ccnn2)nc(N)n1`: the “% Inhibition” value is -5% and the Z score worked out at 0.75.
